Results on 120 sequences are retold here after the supplement of paper PMC10126150.

Values marked as one replicate rest on one cluster of the flow cell; about a third of the high ones do not repeat.

In the data set the test system is ATP. Kind of data set: switch fluorescence ratio, 500 uM ATP over buffer (Cy3 cluster intensity, sum of 5 cycles each) (fold (ratio)); higher = stronger signal-on switching upon ATP binding; sequences stand for … in TCGTCGGCAGCGTCAGATGTGTATAAGAGACAGTTTTTTTTTTTTTTTTTTTTTTTTT…TC. The following applies: aptamer strand: ATP DNA aptamer (quencher-CACCTGGGGGAGTATTGCGGAGGAAGG + anchor), 100 nM annealed; ATP concentration: 500 uM; one replicate. A digest of the protocol:
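Switching-strand clusters labelled with Cy3 on a modified Illumina MiSeq flow-cell were annealed to 100 nM quencher-labelled ATP aptamer, imaged in selection buffer, and re-imaged after 15 min with 500 uM ATP at 22 °C. This was done over five cycles with NaOH stripping and re-annealing in between. The fluorescence ratio is summed target-cycle over summed buffer-cycle Cy3 intensity per cluster, averaged per switch-domain sequence, excluding clusters outside 100-1000 RFU.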
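Note: ATP exposure 15 min at 22 °C before imaging.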

For AAGGATACAT, the switch fluorescence ratio turned out to be 1.04.

Take TGAGTGATA: the switch fluorescence ratio was 0.941.

TTTTGATCTG: the switch fluorescence ratio came to 1.03.

Take GCCTTTGCTT: the switch fluorescence ratio is 0.98.

Regarding TCTGTATGGA, the switch fluorescence ratio is 0.954.

As to TATTACGT, the switch fluorescence ratio stood at 1.05.

Regarding CTAAGTAAGC, the switch fluorescence ratio worked out at 1.09.

For TCAGTGAATT, the switch fluorescence ratio came to 0.966.

For TCTATAATGA, the switch fluorescence ratio was determined as 0.966.

ACTGTAGGCG: the switch fluorescence ratio was 0.972.

As for CGTTCCATT, the switch fluorescence ratio turned out to be 1.08.

With CGATCATGAA, the switch fluorescence ratio came out at 1.03.

Consider AGTTGCAATC, for which the switch fluorescence ratio was found to be 1.9.

GCGTCTGTT: the switch fluorescence ratio came to 0.975.

In the case of TTCGATGCGA, the switch fluorescence ratio turned out to be 1.03.

For the sequence GTTACCTTCG, the switch fluorescence ratio amounted to 2.07.

For the sequence TTTGCAGGCG, the switch fluorescence ratio stood at 1.07.

Regarding ATGGGATGTC, the switch fluorescence ratio came out at 0.921.

TTTCGATATA: the switch fluorescence ratio was determined as 1.04.

With ACAAAAGGCT, the switch fluorescence ratio turned out to be 1.02.

For the sequence AGTCACGGCC, the switch fluorescence ratio was 1.03.

Turning to TTGGATGCAA, the switch fluorescence ratio is 1.07.

Take GACATAGTAG: the switch fluorescence ratio worked out at 1.02.

Consider CGCAGGTAAG, for which the switch fluorescence ratio came out at 1.04.

As for GTGGGGTCTA, the switch fluorescence ratio was found to be 1.04.

With GCACGGGTAT, the switch fluorescence ratio came out at 1.

Regarding TGGGGATAGA, the switch fluorescence ratio came to 0.994.

Regarding GGGTCCTGAT, the switch fluorescence ratio turned out to be 0.993.

Consider CTCGGAGGAT, for which the switch fluorescence ratio was found to be 1.

CAAGCGGTCC: the switch fluorescence ratio was 1.14.

For the sequence TGTGTCTTAG, the switch fluorescence ratio came out at 0.936.

Consider ACAGAGACTA, for which the switch fluorescence ratio was determined as 1.05.

As to GGGCAGCCTG, the switch fluorescence ratio came to 1.01.

As for AGACCGTATT, the switch fluorescence ratio is 1.12.

On to AAAACACCGG, for which the switch fluorescence ratio worked out at 0.992.

AACGCGCCAG: the switch fluorescence ratio is 0.979.

Turning to CCTGCGGTCA, the switch fluorescence ratio came to 1.17.

With ACTTCATGTT, the switch fluorescence ratio was determined as 0.997.

As to TTTGGAACGG, the switch fluorescence ratio came out at 1.05.

Consider TTATCGCCTG, for which the switch fluorescence ratio was 1.04.

As for CGTTCCTTTC, the switch fluorescence ratio stood at 1.6.

On to ACAGGTCCCG, for which the switch fluorescence ratio worked out at 1.02.

Regarding GGATATACAT, the switch fluorescence ratio turned out to be 1.

For the sequence TCGCGTTATA, the switch fluorescence ratio was determined as 0.986.

GTGGGAGAGG: the switch fluorescence ratio came to 1.04.

As to CAAGACCAGC, the switch fluorescence ratio worked out at 1.

On to TTACCGCGGA, for which the switch fluorescence ratio was 1.02.

Regarding GCAACTGTTT, the switch fluorescence ratio was found to be 1.1.

Take GTTATTTTTC: the switch fluorescence ratio was determined as 0.957.

Take TATCGGTCTG: the switch fluorescence ratio stood at 1.07.

As to AATAGAACCA, the switch fluorescence ratio was 1.02.

Regarding TTGGGCCCAT, the switch fluorescence ratio was determined as 1.01.

CAAATGCGAC: the switch fluorescence ratio is 1.24.

Regarding GTTGCACGGA, the switch fluorescence ratio was 0.993.

Regarding GCGGTCGGGA, the switch fluorescence ratio stood at 1.02.

As to TGGGCACATG, the switch fluorescence ratio came to 1.02.

On to AGTAGATAAG, for which the switch fluorescence ratio was 1.01.

As for TTTTAAACTA, the switch fluorescence ratio was found to be 0.948.

Regarding TGCGGCGCTG, the switch fluorescence ratio is 0.971.

Take AGGGCCGCGT: the switch fluorescence ratio amounted to 0.977.

For GGCCTTAGGT, the switch fluorescence ratio was 1.02.

On to AAATCGCTTG, for which the switch fluorescence ratio is 0.994.

For TAGATCATGG, the switch fluorescence ratio worked out at 1.06.

ATGTTACTCA: the switch fluorescence ratio worked out at 0.992.

Take GACCTATTTA: the switch fluorescence ratio came to 1.03.

Regarding GTTTAAAATT, the switch fluorescence ratio is 1.02.

Consider ATTGGATCGC, for which the switch fluorescence ratio came out at 1.04.

Regarding TGATTGACTC, the switch fluorescence ratio amounted to 1.02.

In the case of AGTAACATAG, the switch fluorescence ratio is 1.05.

Regarding CCCGGTCCCT, the switch fluorescence ratio came out at 1.07.

For GCCTATAATA, the switch fluorescence ratio was 0.999.

In the case of AAGCAGGACT, the switch fluorescence ratio worked out at 1.36.

For the sequence AGACTTCAAG, the switch fluorescence ratio was found to be 1.01.

ACACGCGGAG: the switch fluorescence ratio amounted to 0.991.

Take ACAAGCTTCG: the switch fluorescence ratio is 1.07.

CGCGAACTGT: the switch fluorescence ratio was 0.958.

With TGATCAGTTC, the switch fluorescence ratio stood at 1.07.

As for TCATCAGGGG, the switch fluorescence ratio turned out to be 1.03.

With TTTAGGTGCT, the switch fluorescence ratio was determined as 1.09.

As to AGAATGGTTG, the switch fluorescence ratio came to 0.948.

As to TTAGATTTAC, the switch fluorescence ratio was determined as 0.992.

Consider GTGAGTTCGT, for which the switch fluorescence ratio was 0.993.

For the sequence CGCGCCGGTC, the switch fluorescence ratio is 1.05.

Regarding TCATGGTTAG, the switch fluorescence ratio came to 1.

On to AATTGGTCGC, for which the switch fluorescence ratio is 0.958.

For ATGATCATTT, the switch fluorescence ratio was found to be 1.02.

On to ACTCCGGTGA, for which the switch fluorescence ratio amounted to 3.19.

For the sequence AAACCTTAGT, the switch fluorescence ratio came to 1.02.

Take ACCATTTGCG: the switch fluorescence ratio is 0.992.

On to TTGTGGTATG, for which the switch fluorescence ratio was determined as 1.04.

Consider GAGGCCGCGT, for which the switch fluorescence ratio is 1.22.

For ATGTACCTGT, the switch fluorescence ratio was determined as 1.02.

Turning to TTGCATGTCG, the switch fluorescence ratio was determined as 1.02.

As to GCCGTAGGGT, the switch fluorescence ratio worked out at 1.01.

With TCTTTGCCAA, the switch fluorescence ratio was 1.03.

As for TCTGAAGACG, the switch fluorescence ratio stood at 1.07.

CGGGTCCGCA: the switch fluorescence ratio stood at 1.45.

On to AAAGCTCGTT, for which the switch fluorescence ratio turned out to be 1.08.

As for TTAGCACATG, the switch fluorescence ratio worked out at 1.03.

Take GAATCAGGA: the switch fluorescence ratio is 0.985.

Consider CGATTAATCG, for which the switch fluorescence ratio amounted to 0.993.

Consider CTGACCGACG, for which the switch fluorescence ratio came to 1.69.

As to GGTTAGTAGT, the switch fluorescence ratio came to 0.978.

As to GAGGTCGCGA, the switch fluorescence ratio came to 0.949.

For GTATCTCGTC, the switch fluorescence ratio is 1.02.

Regarding GGCGGGGTTC, the switch fluorescence ratio worked out at 0.992.

With ATCACTCCT, the switch fluorescence ratio stood at 1.04.

For the sequence TGTATAGCGG, the switch fluorescence ratio was determined as 1.02.

In the case of TCATGGTAGG, the switch fluorescence ratio was found to be 0.965.

As to CCGTCTCAGG, the switch fluorescence ratio was found to be 1.33.

For AGTCCAGGAT, the switch fluorescence ratio worked out at 0.989.

In the case of GAATATCGGC, the switch fluorescence ratio turned out to be 0.982.

Take ATTACGAGGC: the switch fluorescence ratio amounted to 1.08.

On to GAGATTTGT, for which the switch fluorescence ratio is 1.02.

For the sequence ATGTGTATCA, the switch fluorescence ratio worked out at 0.975.

As to CAGTCCGAAA, the switch fluorescence ratio was found to be 1.69.

For TTGCAGCAG, the switch fluorescence ratio stood at 1.27.

CGATCTTTCG: the switch fluorescence ratio is 0.998.

Take TAAGGCAGGC: the switch fluorescence ratio turned out to be 1.05.

Consider AGTGGAGCAT, for which the switch fluorescence ratio was 1.05.
